# Reference: the supplement of paper PMC11417369
# This is one part of the list.
# Test system: PfHDP1 homeodomain (GST-tagged)
# Assay: gcPBM binding intensity (ln(normalized median fluorescence intensity)); higher = stronger DNA binding
# In short: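 DNA-binding domains from P. falciparum, fused to GST and produced in E. coli, were put on an Agilent 4 × 180k double-stranded probe array for 1 h in 1× PBS holding 1% milk, 0.2 mg/ml BSA, 0.5% salmon testes DNA and 0.03% Triton X-100. Probes were primer-extended, 36 bp long and drawn from intergenic genomic regions, with negative controls included. After Alexa488 anti-GST antibody detection and a 488 nm scan, binding intensity was set as the highest Masliner-normalised natural-log median intensity across replicate spots of either probe orientation.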
row,Sequence,gcPBM binding intensity (ln)
1,TTAAATATTTTTTATACACACATTTCTTATTTAACT [CACACA_site229],6.87
2,TAATTATTATTAATAGTACACACTATGGCATTTCAA [CACACA_site2488],6.37
3,TTTTTTTCAATATTTGCACACGATTAAAATATTTAA [CACACA_site5266],10.6
4,TATTATATATATATATGTACATATTGTATGTTATAT [XGTACX_site5303],6.68
5,CAAACATATTAATGTACACACACCCACCCACAAACA [CACACA_site2752],8.44
6,TATGTGAATATTGAGGTGCGGTTGTTAAAATTTATA [GTGCAC_site9915],6.66
7,AGTAGTCTGGAGAAGAGTACACAGTATCTGGTAGCT [XGTACX_site2042],5.83
8,ACATTAACATTGTTGGTGCAAAATTAATATGTTTTT [GTGCAC_site9673],10.7
9,AAATTTGCTTTACCAGTGCAAAAAAAAAAAAAAAAA,8.88
10,TGTTTTTATCCTTATGGTACAGTATAATACTTACAG [XGTACX_site6381],6.62
11,AAATCACATAAAAATAGTACTTTTTTTTTTTTTTTT [XGTACX_site2696],6.35
12,GGAAAATGAAAACAAGGTACACATAAGAACAAACAA [XGTACX_site1221],7.25
13,AATAGGGTCATTCAAAAAAAAAAAAAATAATAATAC [CACACA_negctrl_site644],6.57
14,ATATATATATATATATGTACGTATAATATATATATG [XGTACX_site2212],9.38
15,ATTATTCAGGTAAAGTGTACAGGAGAAAAATAAAAT [XGTACX_site334],7.27
16,CGCACCCAAATATATACACACATATATATATATATA [CACACA_site1651],9.39
17,TATATGTTTAATTTCACACACAAATATGCATTTTAA [CACACA_site7881],6.84
18,AAATAAATACTAGGCACACACACATATATATATATA [CACACA_site2079],9.14
19,ATTGTAAGGAAACACACACACATATATATGTATATA [CACACA_site676],6.84
20,ATTATTGTAATATTAGCACACATTACCTCACTACAA [CACACA_site2560],7.21
21,AAAAAGAAGAAGAAATGTACGTAACTATATATTTAT [XGTACX_site4362],6.47
22,TGGCTTTCCCTGCCGGTGCATTAACATTTTTTACAT [GTGCAC_site9914],10.2
23,TTAATGGAAAAATAGGCACACACACCGATATACATA [CACACA_site8356],6.8

row,Sequence,gcPBM binding intensity (ln)
1,TTAATATTCCAGCTTTGTACATATATATATTATAAA [XGTACX_site7954],6.6
2,TTTTACATAAATTATAAATATATAAAATAAAAAAAA [CACACA_negctrl_site1499],6.19
3,CATATATATATTTTTTGTACATATATTTTTACATAT [XGTACX_site8419],6.81
4,AATATAAAAATGTTTACACACACACGGAAATATATT [CACACA_site7226],7.13
5,ATATATATATGTGGATGTACATATATCTCTTATTAT [XGTACX_site1748],8.47
6,ATGTTGTACAAACACACACACAAAAAAAAAATAAAA [CACACA_site2406],7.13
7,TAAAATTAATAAAATATTTTCACTTAATATATATAA [CACACA_negctrl_site1550],6.57
8,AGTACATTATAGAATACACACCTATATATATATATA [CACACA_site4447],9.29
9,AATTATTAAATATGTACACACGTACATTTTATAAAT [CACACA_site5341],6.06
10,TAATACATACACACATGTACATACAGAAATAAATAA [XGTACX_site3245],6.73
11,TATTTTGTTCTTTCCACACACAAATACATATATTGT [CACACA_site4071],7.01
12,ATTTTCCCTTGTTTTACACACGTGCTGATATGAGAT [CACACA_site2164],7.65
13,AAATAAATATATATATGTACATACAAATACACGGTA [XGTACX_site8510],6.93
14,AAGAAAAATGTCATATGATATCATATATTTTATAAT [TGCATGCA_negctrl_site296],6.44
15,ATATAATATTGAGTTTGTACATATATATATGAAGAT [XGTACX_site4444],6.64
16,AATTATGCATTTGTCACACATATATATTACACTTGC [CACACA_site5324],6.96
17,TAGCCAAAATATAATTTACACACTTATTAAATAATT [CACACA_site7963],6.25
18,AAAAAAAAAAAAAAATGTACATTATACACATTATAT [XGTACX_site6824],6.99
19,ATAATATATATTAATACACACACACCGATATATATA [CACACA_site9261],7.26
20,GACCAATACTTTAAAAGTACAAACCTTATTTTATTT [XGTACX_site2718],6.45
21,AAACAAATGTACAAAGTGCATATTTTTTTCAAAAGG,7.84
22,ACATATGTATAATAATGTACGCATTAAATATAATTA [XGTACX_site7851],6.27
23,AAAAAAAAATAAAATAAAATAAAATAAAATAATATA [CACACA_negctrl_site1798],6.26

row,Sequence,gcPBM binding intensity (ln)
1,TATATAAATAGACACACACACACATATAAATAAATA [CACACA_site7855],7.01
2,TTTCAATGCATAAAAGTGCGCAATAATTTAAAGATC,8.09
3,AGGAGGATATTACACAGTACCCAGGAAATCTACGGA [XGTACX_site4878],6.32
4,TATTTTATAAATACAAGTAAAATTAAATATATAATA [XGTACX_negctrl_site221],6.14
5,TTGTACTACAATCCTTTATTTATTTAAACCTGTATG [CACACA_negctrl_site428],6.42
6,TTTTAAAGAAAAAAATGTACAAAATTTTTATTTTAA [XGTACX_site1496],5.85
7,AATGTGATAATATACACACACGCATATATATATATA [CACACA_site323],9.36
8,CTGTGTAATTTAAATTGTACGTTTGAAAAAAATAAA [XGTACX_site5667],6.58
9,AAAACACTTATGGATTGTACAATAAAAATTATATTA [XGTACX_site7042],6.54
10,TATGTGAATATAATCACACACAATACGGAAAGAGAC [CACACA_site7311],8.1
11,TTTTTTTTTTATAAGGCACACATGAATATTTATACA [CACACA_site1316],6.38
12,TATATGTAATATTATACATGCATACATAATATATAT [TGCATGCA_site558],6.52
13,ACCCACGTAAATTAAGCATGCCTTCCGTTATATTTA [TGCATGCA_site365],6.98
14,TTTTACTAAATATATACACACATTATGCATATATAT [CACACA_site3287],7.04
15,TAAATCATGGGATAAGCATGCGCGCACATGTTTGTT [TGCATGCA_site768],7.12
16,TTTATTTATTAAGAATGTACATGTATTTGTTAAATA [XGTACX_site4465],6.1
17,AAAAGGAATTATAGGAAATAAATATATACAAATATA [TGCATGCA_negctrl_site528],6.3
18,CCATTTGATAATAATGCACACCACATATATTTATAT [CACACA_site9002],10.1
19,CGATTTTTTAAGTTTGTGCACTTAAAAACTATAACA,9.61
20,TATTTCAAAATAAAATAAAATATATATATATGTATA [XGTACX_negctrl_site416],6.7
21,TATATGTCAATATCTACACACATATAGGTAATTATT [CACACA_site7475],6.35
22,TATACTATACAACACATACACACAAAAAAAAAAAAA [CACACA_site537],6.57
23,TTCTGTGTGTATTGGCGTACAATTATTTTGCCTACA [XGTACX_site205],6.8

row,Sequence,gcPBM binding intensity (ln)
1,ACATTCACAAAATTTTGTACACATATATATATATAT [XGTACX_site3518],9.43
2,GTATTATCTGCTTTTTGTACACATATATTTAAAAAA [XGTACX_site7603],7.34
3,AAGGAGCCTATGAACACACACATGTACATATATTAA [CACACA_site4084],6.52
4,ATACTATTATATATATGTACATATATATGATGCTCT [XGTACX_site1771],8.41
5,TTATAATATATATGTAGTACTGTTTTTTTCTATTTT [XGTACX_site7749],6.64
6,TGTACAAATATGTACACACACACATATATATATATA [CACACA_site584],9.36
7,TATTATTTTAAAAATGCATGTTCATATGAAATAATA [TGCATGCA_site969],6.94
8,TTCGTTCTTTTATGCACACTCAACATATAAATTAAA [CACACA_site1209],10.1
9,ATATGACGTAGTGGTGTACACACATGGTACCTTTAT [CACACA_site8436],7.46
10,AGTAAATAATTATATACATGCATTTACTAATATTTA [TGCATGCA_site952],6.44
11,AATATATATTTATGTACACACTCCAATACAGATACA [CACACA_site5481],6.91
12,CATATACATACACATACACACATACACCCATACACA [CACACA_site8514],7.31
13,TGTAAAAAATTTAACACACACATATATAAATATGTA [CACACA_site7261],6.3
14,ATATAATAGTATATATGTACATATATTTAAATACTA [XGTACX_site1135],6.55
15,TATATTATAATTTGAAGTACATTTTAAATTAACTAA [XGTACX_site1013],6.01
16,AAAAAAAAAAAACACACACACACACCCACAAAATAT [CACACA_site1447],6.92
17,AAAAAAAAATACCTACGTACATATATATATTATATA [XGTACX_site3983],6.38
18,CTTTATCTTCTCACGAAGATTGAATAAGGTATTCTT [XGTACX_negctrl_site307],5.58
19,CAGACAATAAAGAAGTGTACACATATATCAATAAAA [XGTACX_site4515],7.31
20,TTAATGCACTTTATTACACACACTAGTTCATTACCT [CACACA_site2294],10.2
